The source gives no read counts; variants with many changes may rest on few reads.
B1: LINE1-full (parent)
chain: UACGUAGGUGGUUUUCCCCUGAUAGUGCUAAGGGGGCCUGGAAGUUUGGACUGGGCAGAGCUCAACACAGCGUGGCAAAGUGGCUGUGGCUAGACUGCCUCUCUGGAUUCCUCGUCACUCAGCAGGGCAUCUCUGAGAGAAAUGCC

Variants of: B1
Assay: self-cleavage, relative activity (ratio to wild type); higher = more cleavage; in vitro, sequencing; the parent is a self-cleaving ribozyme

| Variant | self-cleavage |
| --- | --- |
| G21A A69G G89A | 0.05 |
| G21A A77U U115A A136G | 1.27 |
| G21A A94G A140G | 0.37 |
| G21A G35A A67G | 0.19 |
| G21A U29C A30G | 0.17 |
| G21A U39A U62C | 0.06 |
| G21A U45C A94G | 0.25 |
| G21A U46A A117G | 1.45 |
| G21A U47G A59G G105A A129G | 0.18 |
| G21A U47G U112A U134A | 0.88 |
| G21A U91C U134C | 0.36 |
| G21A U109A A140G | 0.89 |
| G21A U119A A142G | 1.07 |
| G21U A31U U104A U119C A124G | 0.43 |
| G21U A43G U47C U85C | 0 |
| G21U A57G U134C | 0.14 |
| G21U A57U U134C | 0.15 |
| G21U A59U U87C A124G | 0 |
| G21U A69U U87C U100C | 0 |
| G21U A94G U130A | 0.15 |
| G21U G34A U109A | 1.01 |
| G21U G36C A43G U62A A67U U132C | 0.09 |
| G21U G74U G114A | 1.68 |
| G21U G75C G106A | 0.17 |

| Variant | self-cleavage |
| --- | --- |
| G21U G82U U104A U132C | 1.16 |
| G21U U45A U134C | 1.23 |
| A22C A50G A77U A129U | 1.26 |
| A22C A57U A64C A107U | 0.07 |
| A22C A57U U108C C120A | 0.71 |
| A22C A64U G89A | 0 |
| A22C A79C U91C | 0 |
| A22C U39A A117U | 2.13 |
| A22C U39A C63U A77G A94G G106A | 0.11 |
| A22C U52C U96A | 0.15 |
| A22C U108C A124G | 2.51 |
| A22C U112C U132C | 1.31 |
| A22G A24G U112A | 0.85 |
| A22G A30G A42U U52A A77U A117G | 0.29 |
| A22G A30G A138G | 0.92 |
| A22G A31C U45A U100C U102C U115A A141G | 2 |
| A22G A31C U104C C111U | 0.85 |
| A22G A31G A57G U102C A117U | 1.31 |
| A22G A31G G93U U96C A142G | 0.21 |
| A22G A31U G35U A121U | 0.86 |
| A22G A31U U45C C66U | 0.15 |
| A22G A31U U62C | 0 |
| A22G A42G A50G | 0.34 |
| A22G A42G A140G | 1.48 |

| Variant | self-cleavage |
| --- | --- |
| A22G A42U C113U A129U U132A | 1.08 |
| A22G A43G A69G | 0.51 |
| A22G A43G U46C U85A | 0.17 |
| A22G A43G U73A | 1.82 |
| A22G A43U U73C A124G | 1.58 |
| A22G A50C U62A | 0.03 |
| A22G A50U A64U U130C | 0.58 |
| A22G A50U U132G | 1.04 |
| A22G A57G U62A | 0.2 |
| A22G A57U C99G | 0.14 |
| A22G A57U U104C U132C | 0.14 |
| A22G A59G A67G A140U | 0 |
| A22G A59G U85C | 0 |
| A22G A59G U91A A138G | 0 |
| A22G A59G U143C | 0.29 |
| A22G A64C A77G C145U | 0.73 |
| A22G A64C G114C | 0.37 |
| A22G A65G A67U A92G | 0.34 |
| A22G A65G G75A A107G | 0.09 |
| A22G A65G U119A | 0.2 |
| A22G A65U U112C | 0.2 |
| A22G A69G A107U | 0.16 |
| A22G A69G U96A A141U A142G | 0 |
| A22G A69U G93A A141G | 0.07 |

| Variant | self-cleavage |
| --- | --- |
| A22G A77G U91C | 0 |
| A22G A78U A142C | 1.84 |
| A22G A79G A140G | 0.34 |
| A22G A79G U96A | 0.1 |
| A22G A79G U102C A140G | 0.61 |
| A22G A94G A121U U130C | 0.09 |
| A22G A94G A140G | 0.18 |
| A22G A94U A138G G144A | 0.35 |
| A22G A94U A140G | 0.41 |
| A22G A94U U134C | 0.28 |
| A22G A117G A142G | 0.92 |
| A22G A136U A140G | 1.25 |
| A22G A138G A141G | 0.68 |
| A22G A138G A142G | 1.57 |
| A22G C37U U108C A140G | 1.44 |
| A22G C38U A77G U143C | 1.84 |
| A22G C61A A142G | 0.03 |
| A22G C61U U134C | 0.14 |
| A22G C68A A121U | 0.08 |
| A22G C68U U73A A79G A124U | 0.08 |
| A22G C71U U143A | 0.74 |
| A22G C90G U143A | 0.14 |
| A22G C113A A124G U134C | 1.24 |
| A22G C120U A124G U130C | 0.98 |

| Variant | self-cleavage |
| --- | --- |
| A22G G27A A50G | 0.66 |
| A22G G27A C66U A69G U81C | 0.13 |
| A22G G32A U109A | 0.9 |
| A22G G33A A59G U132C | 0.16 |
| A22G G33A U39A A59G U143A | 0.1 |
| A22G G34A U134C | 1.3 |
| A22G G35A A117G | 1.27 |
| A22G G36C A65G A67G U91A | 0 |
| A22G G40U A124U | 0.85 |
| A22G G44A U62C | 0.41 |
| A22G G48A U62C | 0.05 |
| A22G G70A A92G | 0.14 |
| A22G G72A U85C | 0 |
| A22G G72C C95U U109A | 0.17 |
| A22G G83U A94G | 0.21 |
| A22G G93U C98U U143C | 0.03 |
| A22G G114C G135A | 0.9 |
| A22G U23C U115A U132C | 1.58 |
| A22G U23G A67G G137A | 1.25 |
| A22G U26A A77G | 1.75 |
| A22G U26A A140G | 0.88 |
| A22G U26A U47C G83U U85C U134A | 0.35 |
| A22G U26A U85C G89U | 0.13 |
| A22G U26C G40A A43G A64G C110U | 0.45 |

| Variant | self-cleavage |
| --- | --- |
| A22G U39A C66U U104A | 0.11 |
| A22G U39A U52C | 0.82 |
| A22G U45A A50G | 0.74 |
| A22G U46C C98G | 0.25 |
| A22G U47A A57U G114A U119G U134C | 0.08 |
| A22G U47A A129G | 1.18 |
| A22G U47A U62A C90U U143C | 0.04 |
| A22G U47A U85A A107G | 0.32 |
| A22G U47C G135A | 0.99 |
| A22G U52A A124U A141G | 1.58 |
| A22G U52C A67G G75A A79G | 1.08 |
| A22G U52C U62C | 0.46 |
| A22G U62A A94U | 0.03 |
| A22G U62C A79U | 0.12 |
| A22G U62C A141G | 0.24 |
| A22G U73A A129U | 1.32 |
| A22G U73A G93A U102C | 0.07 |
| A22G U73A U109C | 1.8 |
| A22G U73C C101U C118U | 1.51 |
| A22G U81C A141G | 1.21 |
| A22G U85A A94G A142G | 0.31 |
| A22G U85A A107G U119G | 0.22 |
| A22G U85C C99G | 0.13 |
| A22G U87A C99U C131U | 0.1 |

| Variant | self-cleavage |
| --- | --- |
| A22G U87C G88A U100A A129G | 0 |
| A22G U91A A117G | 0 |
| A22G U96A A117U C118U | 0.08 |
| A22G U96C C116A | 0.13 |
| A22G U96C U108C A121C | 0 |
| A22G U100C A138G | 1.43 |
| A22G U100C U130C | 0.63 |
| A22G U102C G105A A142G | 1.25 |
| A22G U102C G125U | 1.34 |
| A22G U109A A136G | 1.95 |
| A22G U109C U132C A138G | 1.75 |
| A22G U112A A136G | 1.23 |
| A22G U130A A141G | 1.61 |
| A22G U132A A141G | 2.3 |
| A22U A42G G88A A107G | 0.17 |
| A22U A42U A69G | 0.43 |
| A22U A43C G55C A79G | 0 |
| A22U A43G C51U C71U U100C A121G | 1.6 |
| A22U A43U A92G A94G C99U | 0.13 |
| A22U A59G A79G A124G G126A A138U | 0.05 |
| A22U A59G U108C U115C | 0.4 |
| A22U A64G U132C | 0.27 |
| A22U A65G U134C | 0.26 |
